Test results published in EPA's CvTdb concentration-time database.
This continues a long series; more values of the same kind are listed elsewhere.

How the values were obtained:
Test in all cases: concentration in plasma after dosing
Rat [1] = conditions: dosed: Perfluorooctanoic acid, 6 mg/kg, iv, Male, F344
Rat [2] = conditions: 9 h; dosed: Fluorotelomer alcohol 8+2; 24 mg/kg; oral; Male; Harlan Sprague Dawley
Rat [3] = tested on: Rat
Rat [4] = conditions: 1 h; dosed: Perfluorooctanoic acid; 12 mg/kg; oral; Male; Harlan Sprague Dawley
Rat [5] = conditions: 96 h; dosed: Perfluorooctanoic acid; 80 mg/kg; oral; Female; Harlan Sprague Dawley
Rat [6] = conditions: dosed: Fluorotelomer alcohol 8+2, 40 mg/kg, oral, Female, Harlan Sprague Dawley
Rat [7] = conditions: dosed: Perfluorooctanoic acid, 320 mg/kg, oral, Female, Harlan Sprague Dawley
Rat [8] = conditions: 24 h; dosed: Perfluorooctanoic acid; 12 mg/kg; oral; Male; Harlan Sprague Dawley
Rat [9] = conditions: dosed: Perfluorooctanoic acid, 12 mg/kg, oral, Male, Harlan Sprague Dawley
Rat [10] = conditions: 3 h; dosed: Fluorotelomer alcohol 8+2; 80 mg/kg; oral; Female; Harlan Sprague Dawley
Rat [11] = conditions: 3 h; dosed: Fluorotelomer alcohol 8+2; 160 mg/kg; oral; Female; Harlan Sprague Dawley

O=C(O)C(F)(F)C(F)(F)C(F)(F)C(F)(F)C(F)(F)C(F)(F)C(F)(F)F [Perfluorooctanoic acid]
Conditions	concentration in plasma [ng/mL]
Rat [1], 1 h	46800
Rat [1], 24 h	48300
Rat [1], 1200 h	841
Rat [6], 1 h	743
Rat [6], 24 h	58.7
Rat [7], 6 h	335000
Rat [7], 48 h	161000
Rat [9], 0.25 h	16700
Rat [9], 864 h	10100

Conditions	concentration in plasma [ng/mL]
Rat [2]	1110
Rat [4]	46600
Rat [5]	170
Rat [8]	77500
Rat [10]	3070
Rat [11]	4530

concentration in plasma [ng/mL], Rat [3], dosed: Perfluorooctanoic acid
Conditions	Female	Male
0.25 h, 6 mg/kg, iv, F344	–	51000
0.25 h, 6 mg/kg, oral, Harlan Sprague Dawley	–	15000
0.25 h, 12 mg/kg, oral, Harlan Sprague Dawley	–	19600
0.25 h, 40 mg/kg, iv, F344	–	257000
0.25 h, 40 mg/kg, oral, Harlan Sprague Dawley	–	62500
0.25 h, 48 mg/kg, oral, Harlan Sprague Dawley	–	46100
0.25 h, 80 mg/kg, oral, Harlan Sprague Dawley	106000	–
0.25 h, 320 mg/kg, oral, Harlan Sprague Dawley	194000	–
0.5 h, 6 mg/kg, iv, F344	–	47300
1 h, 6 mg/kg, iv, F344	–	48700
1 h, 6 mg/kg, oral, Harlan Sprague Dawley	–	18600
1 h, 12 mg/kg, oral, Harlan Sprague Dawley	–	54400
1 h, 40 mg/kg, iv, F344	–	137000
1 h, 40 mg/kg, oral, Harlan Sprague Dawley	–	108000
1 h, 48 mg/kg, oral, Harlan Sprague Dawley	–	97900
1 h, 80 mg/kg, oral, Harlan Sprague Dawley	216000	–
1 h, 320 mg/kg, oral, Harlan Sprague Dawley	387000	–
3 h, 6 mg/kg, iv, F344	–	49700
3 h, 6 mg/kg, oral, Harlan Sprague Dawley	–	35300
3 h, 12 mg/kg, oral, Harlan Sprague Dawley	–	75700
3 h, 40 mg/kg, iv, F344	–	110000
3 h, 40 mg/kg, oral, Harlan Sprague Dawley	–	114000
3 h, 48 mg/kg, oral, Harlan Sprague Dawley	–	229000
3 h, 80 mg/kg, oral, Harlan Sprague Dawley	60200	–
3 h, 320 mg/kg, oral, Harlan Sprague Dawley	382000	–
5 min, 6 mg/kg, iv, F344	–	55600
5 min, 40 mg/kg, iv, F344	331000	350000
5 min, 40 mg/kg, iv, Harlan Sprague Dawley	362000	–
6 h, 6 mg/kg, iv, F344	–	57600
6 h, 6 mg/kg, oral, Harlan Sprague Dawley	–	39200
6 h, 12 mg/kg, oral, Harlan Sprague Dawley	–	67300
6 h, 40 mg/kg, iv, F344	–	66100
6 h, 40 mg/kg, oral, Harlan Sprague Dawley	–	91600
6 h, 48 mg/kg, oral, Harlan Sprague Dawley	–	273000
6 h, 80 mg/kg, oral, Harlan Sprague Dawley	213000	–
6 h, 320 mg/kg, oral, Harlan Sprague Dawley	304000	–
9 h, 40 mg/kg, oral, Harlan Sprague Dawley	–	110000
9 h, 80 mg/kg, oral, Harlan Sprague Dawley	172000	–
9 h, 320 mg/kg, oral, Harlan Sprague Dawley	400000	–
12 h, 6 mg/kg, iv, F344	–	41100
12 h, 6 mg/kg, oral, Harlan Sprague Dawley	–	46000
12 h, 12 mg/kg, oral, Harlan Sprague Dawley	–	90300
12 h, 40 mg/kg, iv, F344	–	12300
12 h, 40 mg/kg, oral, Harlan Sprague Dawley	–	28600
12 h, 48 mg/kg, oral, Harlan Sprague Dawley	–	296000
12 h, 80 mg/kg, oral, Harlan Sprague Dawley	82500	–
12 h, 320 mg/kg, oral, Harlan Sprague Dawley	260000	–
24 h, 6 mg/kg, iv, F344	–	44600
24 h, 6 mg/kg, oral, Harlan Sprague Dawley	–	39800
24 h, 12 mg/kg, oral, Harlan Sprague Dawley	–	80400
24 h, 40 mg/kg, iv, F344	–	986
24 h, 40 mg/kg, oral, Harlan Sprague Dawley	–	2030
24 h, 48 mg/kg, oral, Harlan Sprague Dawley	–	255000
24 h, 80 mg/kg, oral, Harlan Sprague Dawley	9430	–
24 h, 320 mg/kg, oral, Harlan Sprague Dawley	397000	–
48 h, 40 mg/kg, iv, F344	–	319
48 h, 40 mg/kg, oral, Harlan Sprague Dawley	–	86
48 h, 80 mg/kg, oral, Harlan Sprague Dawley	383	–
48 h, 320 mg/kg, oral, Harlan Sprague Dawley	372000	–
96 h, 40 mg/kg, oral, Harlan Sprague Dawley	–	50.6
96 h, 80 mg/kg, oral, Harlan Sprague Dawley	166	–
96 h, 320 mg/kg, oral, Harlan Sprague Dawley	2820	–
192 h, 6 mg/kg, iv, F344	–	14200
192 h, 6 mg/kg, oral, Harlan Sprague Dawley	–	21700
192 h, 12 mg/kg, oral, Harlan Sprague Dawley	–	31600
192 h, 48 mg/kg, oral, Harlan Sprague Dawley	–	75700
192 h, 80 mg/kg, oral, Harlan Sprague Dawley	2060	–
528 h, 6 mg/kg, iv, F344	–	3510
528 h, 6 mg/kg, oral, Harlan Sprague Dawley	–	4540
528 h, 12 mg/kg, oral, Harlan Sprague Dawley	–	8760
528 h, 12 mg/kg, oral, Harlan Sprague Dawley - this seems too small	–	22300
528 h, 48 mg/kg, oral, Harlan Sprague Dawley	–	31500
864 h, 6 mg/kg, iv, F344	–	1640
864 h, 6 mg/kg, oral, Harlan Sprague Dawley	–	3490
864 h, 12 mg/kg, oral, Harlan Sprague Dawley	–	9760
864 h, 48 mg/kg, oral, Harlan Sprague Dawley	–	18000
1200 h, 6 mg/kg, oral, Harlan Sprague Dawley	–	1070
1200 h, 12 mg/kg, oral, Harlan Sprague Dawley	–	673
1200 h, 48 mg/kg, oral, Harlan Sprague Dawley	–	7840

concentration in plasma [ng/mL], Rat [3], oral
Conditions	Harlan Sprague Dawley	Harlan Sprague Dawley - this seems too small
0.25 h, dosed: Fluorotelomer alcohol 8+2, 24 mg/kg, Male	14.8	–
0.25 h, dosed: Fluorotelomer alcohol 8+2, 40 mg/kg, Female	122	–
0.25 h, dosed: Fluorotelomer alcohol 8+2, 48 mg/kg, Male	34.7	–
0.25 h, dosed: Fluorotelomer alcohol 8+2, 80 mg/kg, Female	108	–
0.25 h, dosed: Fluorotelomer alcohol 8+2, 160 mg/kg, Female	116	–
0.5 h, dosed: Fluorotelomer alcohol 8+2, 24 mg/kg, Male	138	57.6
0.5 h, dosed: Fluorotelomer alcohol 8+2, 40 mg/kg, Female	398	–
0.5 h, dosed: Fluorotelomer alcohol 8+2, 48 mg/kg, Male	225	–
0.5 h, dosed: Fluorotelomer alcohol 8+2, 80 mg/kg, Female	521	–
0.5 h, dosed: Fluorotelomer alcohol 8+2, 160 mg/kg, Female	778	–
0.75 h, dosed: Fluorotelomer alcohol 8+2, 12 mg/kg, Male	231	–
0.75 h, dosed: Fluorotelomer alcohol 8+2, 24 mg/kg, Male	289	–
0.75 h, dosed: Fluorotelomer alcohol 8+2, 40 mg/kg, Female	863	–
0.75 h, dosed: Fluorotelomer alcohol 8+2, 48 mg/kg, Male	357	–
0.75 h, dosed: Fluorotelomer alcohol 8+2, 80 mg/kg, Female	707	–
0.75 h, dosed: Fluorotelomer alcohol 8+2, 160 mg/kg, Female	1130	–
1 h, dosed: Fluorotelomer alcohol 8+2, 12 mg/kg, Male	233	–
1 h, dosed: Fluorotelomer alcohol 8+2, 24 mg/kg, Male	258	–
1 h, dosed: Fluorotelomer alcohol 8+2, 40 mg/kg, Female	601	–
1 h, dosed: Fluorotelomer alcohol 8+2, 48 mg/kg, Male	568	–
1 h, dosed: Fluorotelomer alcohol 8+2, 80 mg/kg, Female	922	–
1 h, dosed: Fluorotelomer alcohol 8+2, 160 mg/kg, Female	2220	–
3 h, dosed: Fluorotelomer alcohol 8+2, 24 mg/kg, Male	596	–
3 h, dosed: Fluorotelomer alcohol 8+2, 40 mg/kg, Female	815	–
3 h, dosed: Fluorotelomer alcohol 8+2, 48 mg/kg, Male	1060	–
3 h, dosed: Fluorotelomer alcohol 8+2, 80 mg/kg, Female	2020	–
3 h, dosed: Fluorotelomer alcohol 8+2, 160 mg/kg, Female	4680	–
6 h, dosed: Fluorotelomer alcohol 8+2, 24 mg/kg, Male	543	–
6 h, dosed: Fluorotelomer alcohol 8+2, 40 mg/kg, Female	1770	–
6 h, dosed: Fluorotelomer alcohol 8+2, 48 mg/kg, Male	3300	–
6 h, dosed: Fluorotelomer alcohol 8+2, 80 mg/kg, Female	2390	–
6 h, dosed: Fluorotelomer alcohol 8+2, 160 mg/kg, Female	3510	–
9 h, dosed: Fluorotelomer alcohol 8+2, 24 mg/kg, Male	1010	–
9 h, dosed: Fluorotelomer alcohol 8+2, 40 mg/kg, Female	1150	–
9 h, dosed: Fluorotelomer alcohol 8+2, 48 mg/kg, Male	2340	–
9 h, dosed: Fluorotelomer alcohol 8+2, 80 mg/kg, Female	1640	–
9 h, dosed: Fluorotelomer alcohol 8+2, 160 mg/kg, Female	2560	–
12 h, dosed: Fluorotelomer alcohol 8+2, 12 mg/kg, Male	612	–
12 h, dosed: Fluorotelomer alcohol 8+2, 24 mg/kg, Male	1000	–
12 h, dosed: Fluorotelomer alcohol 8+2, 40 mg/kg, Female	1100	–
12 h, dosed: Fluorotelomer alcohol 8+2, 48 mg/kg, Male	2210	–
12 h, dosed: Fluorotelomer alcohol 8+2, 80 mg/kg, Female	557	–
12 h, dosed: Fluorotelomer alcohol 8+2, 160 mg/kg, Female	2790	–
24 h, dosed: Fluorotelomer alcohol 8+2, 12 mg/kg, Male	639	–
24 h, dosed: Fluorotelomer alcohol 8+2, 24 mg/kg, Male	1040	–
24 h, dosed: Fluorotelomer alcohol 8+2, 40 mg/kg, Female	89.4	–
24 h, dosed: Fluorotelomer alcohol 8+2, 48 mg/kg, Male	1920	–
24 h, dosed: Fluorotelomer alcohol 8+2, 80 mg/kg, Female	219	–
24 h, dosed: Fluorotelomer alcohol 8+2, 160 mg/kg, Female	799	–
48 h, dosed: Fluorotelomer alcohol 8+2, 24 mg/kg, Male	924	–
48 h, dosed: Fluorotelomer alcohol 8+2, 40 mg/kg, Female	13.6	–
48 h, dosed: Fluorotelomer alcohol 8+2, 48 mg/kg, Male	2050	–
48 h, dosed: Fluorotelomer alcohol 8+2, 80 mg/kg, Female	30.3	–
48 h, dosed: Fluorotelomer alcohol 8+2, 160 mg/kg, Female	171	–
192 h, dosed: Fluorotelomer alcohol 8+2, 24 mg/kg, Male	685	–
192 h, dosed: Fluorotelomer alcohol 8+2, 48 mg/kg, Male	1330	–
